Results reported in patent US8309599B2, “Synthesis of FR901464 and analogs with antitumor activity” (University of Pittsburgh-Of The Commonwealth System of …, priority 2006, dated 2012).

System: MCF-7
Experiment: cells
Conditions: Homo sapiens, MCF7, 120 h, read-out: GI50 against MCF-7

SMILES: CC(/C=C/[C@H]1OC(C)(C)C[C@@]2(CO2)[C@@H]1O)=C\C[C@@H]1O[C@H](C)[C@H](NC(=O)/C=C\[C@H](C)OC(=O)N2CCOCC2)C[C@@H]1C [meayamycin B, (2Z,4S)-4-[(morpholinylcarbonyl)oxy]-N-[(2R,3R,5S,6S)-tetrahydro-6-[(2E,4E)-5-[(3R,4R,5R)-4-hydroxy-7,7-dimethyl-1,6-dioxaspiro[2.5]oct-5-yl]-3-methyl-2,4-pentadien-1-yl]-2,5-dimethyl-2H-pyran-3-yl]-2-pentenamide]
- GI50: ~20 pM
